# Measured values taken from the supplement of paper PMC10037445.
# Whole data set: some 2,900 compounds, median “IRF Lucia reporter activity, fold change vs agonist alone” near 0.9, cut for the highest 2% near 2.8. Some of the results follow.
# How the values were obtained:
# [1] = test system: RAW-Dual; assay: IRF Lucia reporter activity, fold change vs agonist alone; higher = enhanced IRF activity; settings: agonist: MPLA (TLR4) […]
# Outline: (§1)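 Cytotoxic wells were those whose IncuCyte confluency was below 70% of agonist controls in both mask sets. The cells were RAW-Dual macrophages at 50,000 cells/well in DMEM on 384-well plates, dosed with 50 nL of library stock by pin tool, stimulated with a PRR agonist 1 h later, and kept at 37 °C, 5% CO2 for 20 hours. IRF and NF-κB reporter activity, as fold change over agonist-alone wells, came from supernatant read by QuantiLuc luminescence and QuantiBlue absorbance, respectively.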
# [2] = test system: RAW-Dual; assay: IRF Lucia reporter activity, fold change vs agonist alone; cytotoxicity flag (confluency mask): not cytotoxic; higher = enhanced IRF activity
# Outline: as §1
# [3] = test system: RAW-Dual; assay: IRF Lucia reporter activity, fold change vs agonist alone; cytotoxicity flag (confluency mask): cytotoxic (confluency <70% of control); higher = enhanced IRF activity
# Outline: as §1
# [4] = library stock concentration (final ~1000-fold dilution): 10 mM, cytotoxicity flag (confluency mask): not cytotoxic
# [5] = agonist: 3'3'-cGAMP (STING) 10 ug/mL
# [6] = library stock concentration (final ~1000-fold dilution): 10 mM, cytotoxicity flag (confluency mask): cytotoxic (confluency <70% of control)
structure (smiles),measurement,setting,value
O=C(NCC1(c2nc(-c3ccccc3)cs2)CCOCC1)c1cccc(-c2noc(C(F)(F)F)n2)c1,IRF Lucia reporter activity,[1]; [4],1.01
O=C(NCC1(c2nc(-c3ccccc3)cs2)CCOCC1)c1cccc(-c2noc(C(F)(F)F)n2)c1 (library stock concentration (final ~1000-fold dilution): 10 mM),IRF Lucia reporter activity,[2]; [5],0.449
same,IRF Lucia reporter activity,[2]; agonist: LPS (TLR4) 0.1 ug/mL,0.984
CCN(C)S(=O)(=O)Nc1ccc(F)c(C(=O)c2c[nH]c3ncc(-c4cnc(C5CC5)nc4)cc23)c1F (library stock concentration (final ~1000-fold dilution): 10 mM),IRF Lucia reporter activity,[2]; [5],0.0563
same,IRF Lucia reporter activity,[2]; agonist: LPS (TLR4) 0.1 ug/mL,0.409
CC12CCC(O)CC1=CCC1C2CCC2(C)C(n3cnc4ccccc43)=CCC12 (stereo not drawn) (library stock concentration (final ~1000-fold dilution): 10 mM),IRF Lucia reporter activity,[2]; [5],0.655
same,IRF Lucia reporter activity,[2]; agonist: LPS (TLR4) 0.1 ug/mL,0.794
CC12CCC(O)CC1=CCC1C2CCC2(C)C(n3cnc4ccccc43)=CCC12 (stereo not drawn),IRF Lucia reporter activity,[1]; [4],0.987
COc1cc2c(Nc3ccc(Br)cc3F)ncnc2cc1OCC1CCN(C)CC1,IRF Lucia reporter activity,"[1]; library stock concentration (final ~1000-fold dilution): 2 mM, cytotoxicity flag (confluency mask): not cytotoxic",1.08
COc1cc2c(Nc3ccc(Br)cc3F)ncnc2cc1OCC1CCN(C)CC1 (library stock concentration (final ~1000-fold dilution): 2 mM),IRF Lucia reporter activity,[2]; [5],0.161
same,IRF Lucia reporter activity,[2]; agonist: LPS (TLR4) 0.1 ug/mL,0.864
CC12CCC3c4ccc(O)cc4CCC3C1CC(O)C2O (stereo not drawn),IRF Lucia reporter activity,[1]; [4],1.06
CC12CCC3c4ccc(O)cc4CCC3C1CC(O)C2O (stereo not drawn) (library stock concentration (final ~1000-fold dilution): 10 mM),IRF Lucia reporter activity,[2]; [5],0.556
same,IRF Lucia reporter activity,[2]; agonist: LPS (TLR4) 0.1 ug/mL,0.982
CCOC(=O)C1=C(COCCN)NC(C)=C(C(=O)OC)C1c1ccccc1Cl.O=S(=O)(O)c1ccccc1 (stereo not drawn) (library stock concentration (final ~1000-fold dilution): 10 mM),IRF Lucia reporter activity,[3]; [5],1.02
same,IRF Lucia reporter activity,[3]; agonist: LPS (TLR4) 0.1 ug/mL,3.19
CCOC(=O)C1=C(COCCN)NC(C)=C(C(=O)OC)C1c1ccccc1Cl.O=S(=O)(O)c1ccccc1 (stereo not drawn),IRF Lucia reporter activity,[1]; [6],3.36
Cc1ccc(NC(=O)c2ccc(CN3CCN(C)CC3)cc2)cc1Nc1nccc(-c2cccnc2)n1,IRF Lucia reporter activity,[1]; [4],1.29
Cc1ccc(NC(=O)c2ccc(CN3CCN(C)CC3)cc2)cc1Nc1nccc(-c2cccnc2)n1 (library stock concentration (final ~1000-fold dilution): 10 mM),IRF Lucia reporter activity,[2]; [5],0.549
same,IRF Lucia reporter activity,[2]; agonist: LPS (TLR4) 0.1 ug/mL,0.944
CCN(CC)CCOC(=O)C(Cc1cccc2ccccc12)CC1CCCO1.O=C(O)C(=O)O (stereo not drawn) (library stock concentration (final ~1000-fold dilution): 10 mM),IRF Lucia reporter activity,[2]; [5],0.458
same,IRF Lucia reporter activity,[2]; agonist: LPS (TLR4) 0.1 ug/mL,1.16
CCN(CC)CCOC(=O)C(Cc1cccc2ccccc12)CC1CCCO1.O=C(O)C(=O)O (stereo not drawn),IRF Lucia reporter activity,[1]; [4],1.25
CC(C)(O)c1cc(Nc2cc(Oc3cn(C4CC4)nc3C3CCOCC3)ccn2)ccn1 (library stock concentration (final ~1000-fold dilution): 10 mM),IRF Lucia reporter activity,[2]; [5],1.14
same,IRF Lucia reporter activity,[2]; agonist: LPS (TLR4) 0.1 ug/mL,1.53
Cc1c(C(=O)NN2CCCCC2)nn(-c2ccc(Cl)cc2Cl)c1-c1ccc(Cl)cc1 (library stock concentration (final ~1000-fold dilution): 10 mM),IRF Lucia reporter activity,[2]; [5],0.269
same,IRF Lucia reporter activity,[2]; agonist: LPS (TLR4) 0.1 ug/mL,1.25
Cc1c(C(=O)NN2CCCCC2)nn(-c2ccc(Cl)cc2Cl)c1-c1ccc(Cl)cc1,IRF Lucia reporter activity,[1]; [4],1.15
CC1=C(C(=O)Nc2ccc3[nH]ncc3c2)C(c2ccc(F)cc2)NC(=O)N1 (stereo not drawn) (library stock concentration (final ~1000-fold dilution): 10 mM),IRF Lucia reporter activity,[2]; [5],0.535
same,IRF Lucia reporter activity,[2]; agonist: LPS (TLR4) 0.1 ug/mL,0.76
COc1cc2c(c(OC)c1OC)-c1c(cc3c(c1OC)OCO3)CC(C)C(C)C2 (stereo not drawn),IRF Lucia reporter activity,[1]; [4],1.12
CCOC(=O)c1cnc2ccc(-c3cncc(NS(=O)(=O)c4ccccc4)c3)cn12 (library stock concentration (final ~1000-fold dilution): 10 mM),IRF Lucia reporter activity,[3]; [5],0.284
same,IRF Lucia reporter activity,[3]; agonist: LPS (TLR4) 0.1 ug/mL,4.78
CCOC(=O)c1cnc2ccc(-c3cncc(NS(=O)(=O)c4ccccc4)c3)cn12,IRF Lucia reporter activity,[1]; [6],4.46
COc1cc(C(=O)N2CCC(N3CCN(C)CC3)CC2)ccc1Nc1ncc2c(n1)N(C)c1ccccc1C(=O)N2C (library stock concentration (final ~1000-fold dilution): 10 mM),IRF Lucia reporter activity,[2]; [5],0.129
same,IRF Lucia reporter activity,[2]; agonist: LPS (TLR4) 0.1 ug/mL,0.203
COc1cc(C(=O)N2CCC(N3CCN(C)CC3)CC2)ccc1Nc1ncc2c(n1)N(C)c1ccccc1C(=O)N2C,IRF Lucia reporter activity,[1]; [4],0.18
C#CCC(c1nc2cc(Cl)ccc2c(=O)n1Nc1ccccc1)N(CCCN)C(=O)c1cccc(Cl)c1F (stereo not drawn),IRF Lucia reporter activity,[1]; [6],0.0275
C#CCC(c1nc2cc(Cl)ccc2c(=O)n1Nc1ccccc1)N(CCCN)C(=O)c1cccc(Cl)c1F (stereo not drawn) (library stock concentration (final ~1000-fold dilution): 10 mM),IRF Lucia reporter activity,[3]; [5],0.0307
same,IRF Lucia reporter activity,[3]; agonist: LPS (TLR4) 0.1 ug/mL,0.051
COc1ccc(-c2cc(=O)c3c(O)c(OC)c(O)c(OC)c3o2)cc1 (library stock concentration (final ~1000-fold dilution): 10 mM),IRF Lucia reporter activity,[2]; [5],0.681
same,IRF Lucia reporter activity,[2]; agonist: LPS (TLR4) 0.1 ug/mL,0.696
COc1ccc(-c2cc(=O)c3c(O)c(OC)c(O)c(OC)c3o2)cc1,IRF Lucia reporter activity,[1]; [4],0.91
